Several values for one entry are separate records, joined by “and”; a condition that tells them apart may be missing. Identical values can stand only once. Out of some 72,000 compounds screened, about 710 (0.99%) were called active. Inconclusive results, whose numbers are uncertain, are shown with a selection of clear calls. Calls follow the shape of the dose curve; as a rule, active = well fitted inhibition curve with a large enough effect; inconclusive = small, poorly fitted or top-dose-only effect; inactive = no such curve, though single readings can be large or run the other way. A potency beside an inconclusive call is a rough fit, not a confirmed value. Some compounds were tested as several samples or in several runs, with calls that do not always agree.
assay: qHTS Assay for Inhibitors of the ERK Signaling Pathway using a Homogeneous Screening Assay; conditions: HEK293-V1b, vasopressin-stimulated pERK AlphaScreen; activity, negative = inhibition: at 57.5 µM (top of the series) unless noted; also: nearly all actives have a fitted effect of over 55% in size
How it was run: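 HEK293 cells stably expressing V1b receptor, seeded overnight in 1% FBS, were treated with compounds for 30 min at 37C, then stimulated 5 min with 25 nM vasopressin; phospho-ERK read by AlphaScreen SureFire after lysis.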
% is scaled to controls: 0 for no effect and ±100 for the full control effect; potency is read from the fitted curve at half-maximal effect; tags tell the direction and shape of the fitted curve.

Compound | Potency | activity, negative = inhibition
COc1ccc2[nH]cc(C3=CCNCC3)c2c1 | inconclusive: 15.8 µM [inhibitor, full curve, poor fit] | –
CCCCCn1c(SCCCC)nc2c1c(=O)[nH]c(=O)n2C | inconclusive: 1.58 µM [inhibitor, full curve, poor fit] | –
COc1cc2c(cc1O)-c1c(O)c(OC)cc3c1[C@H](C2)N(C)CC3 | – | inactive: 11.1%
C[C@@]12CCC(O)C[C@H]1CCC1C2CC[C@]2(C)C(=O)CCC12 (some centres not stated) | inconclusive: 31.6 µM [inhibitor, single point] | –
C[N+]1(C)[C@@H]2CC[C@H]1CC(OC(=O)c1c[nH]c3ccccc13)C2 (some centres not stated) | inconclusive: 0.0126 µM [inhibitor, full curve, poor fit] | –
CC(C)C(=O)Nc1ccc([N+](=O)[O-])c(C(F)(F)F)c1 | inconclusive: 39.8 µM [inhibitor, single point] | –
CCOC(=O)Nc1ccc(NCc2ccc(F)cc2)nc1N | inconclusive: 15.8 µM [inhibitor, partial curve] | –
C[C@H](CCC(=O)O)[C@H]1CC[C@H]2[C@@H]3CC[C@@H]4C[C@H](O)CC[C@]4(C)[C@H]3CC[C@]12C | active: 39.8 µM | –
Cc1cc(O)c2c(c1)C(=O)c1cc(O)cc(O)c1C2=O | inconclusive: 12.6 µM [inhibitor, partial curve, poor fit] | –
C=CCn1c(O)c(C(C)=NCc2cc(OC)cc(OC)c2)c(=O)[nH]c1=O | inconclusive: 1.58 µM [inhibitor, full curve] | –
CCN1C(=O)c2ccccc2Sc2ccc(C(=O)N3CCC4(CC3)OCCO4)cc21 | – | inactive: -7.21%
O=C(NC(=O)c1ccccc1Cl)Nc1ccc(OC(F)(F)F)cc1 | – | inactive: 0.47%
O=c1c(O)c(-c2ccc(O)c(O)c2)oc2cc(O)cc(O)c12 | inconclusive: 39.8 µM [inhibitor, single point] | –
O=C(OC1Cc2c(O)cc(O)cc2OC1c1cc(O)c(O)c(O)c1)c1cc(O)c(O)c(O)c1 (configuration not stated) | inconclusive: 39.8 µM [inhibitor, single point] | –
CN(C)c1ccc(N=O)cc1 | inconclusive: 5.01 µM [inhibitor, full curve, poor fit] | –
C[C@@H](Cc1ccc(O)cc1)NC[C@@H](O)c1cc(O)cc(O)c1 | inconclusive: 10 µM [inhibitor, partial curve] | –
COC(=O)c1c(C)n(Cc2ccc3c(c2)OCO3)c2ccc(O)cc12 | inconclusive: 25.1 µM [inhibitor, single point] | –
CCS(=O)CCSP(=O)(OC)OC (configuration not stated) | inconclusive: 3.98 µM [inhibitor, partial curve] | –
c1ccc(CCCN2CCN(CCOC(c3ccccc3)c3ccccc3)CC2)cc1 | inconclusive: 12.6 µM [inhibitor, partial curve] and inconclusive: 39.8 µM [inhibitor, single point] | –
Oc1c(Br)c(Br)c(Br)c(Br)c1Br | inconclusive: 39.8 µM [inhibitor, single point] | –
CSC([N-]/N=C/c1cccc(C)n1)=[S]=[Cu].CS[C@H]([S-])[N-]/N=C/c1cccc(C)n1 | inconclusive: 3.16 µM [inhibitor, single point] | –

Compound | Potency | activity, negative = inhibition
COc1ccc(N=C(C)c2c(O)n(C)c(=O)n(C)c2=O)c(OC)c1 | – | inactive: -17%
CC(C)=CCCC1(C)C=Cc2c(O)c3c(c(CC=C(C)C)c2O1)OC12C(=CC4CC1C(C)(C)OC2(C/C=C(/C)C(=O)O)C4=O)C3=O (configuration not stated) | inconclusive: 25.1 µM [inhibitor, single point] | –
CCCc1cc2c(n1Cc1ccco1)C(C)C1CN(C(=O)c3ccccc3)C(C)(C(=O)OC)C21 (configuration not stated) | inconclusive: 39.8 µM [inhibitor, single point] | –
O=c1c2ccccc2[se]n1-c1ccccc1 | – | inconclusive: -36.3% [inhibitor] [at 25.7 µM]
CCCCN1C(=O)NC(=O)C2(Cc3c(nc4ccccn4c3=O)N3CCc4ccccc4C32)C1=O (configuration not stated) | – | inactive: -13.5%
CC1=CC[C@@H]2[C@@H](C1)c1c(O)cc(CC#CCCCNS(C)(=O)=O)cc1OC2(C)C | inconclusive: 39.8 µM [inhibitor, partial curve, poor fit] | –
O=C1N[C@@]2(CN3CCC2CC3)C(=O)N1CN(Cc1ccccc1)c1ccccc1 | – | inactive: -0.497% [at 11.5 µM]
N#CC(C#N)=Cc1ccc(O)c(O)c1 | inconclusive: 39.8 µM [inhibitor, single point] | –
c1ccc(/N=C2\N=C(Nc3ccccn3)c3ccccc32)nc1 | inconclusive: 10 µM [inhibitor, partial curve] | –
CCC(=NCc1cccnc1)c1c(O)n(Cc2ccccc2)c(=O)[nH]c1=O | inconclusive: 31.6 µM [inhibitor, single point] | –
CN(C)c1ccc(NC(=O)CN2C(=O)CN=C(c3ccccc3)c3ccccc32)cc1 | – | inactive: 5.86%
[Cl-].[Cl-].[Hg+2] | active: 7.94 µM | –
CCOC(=O)/C=C1\Nc2ccccc2SC1=O | inconclusive: 25.1 µM [inhibitor, single point] | –
CC1(C)CC2(CCO1)NCCN1C(=O)CSC12 (configuration not stated) | inconclusive: 15.8 µM [inhibitor, partial curve] | –
OCCOCCO | inconclusive: 3.16 µM [inhibitor, full curve, poor fit] | –
Oc1cc2c(cc1O)[C@H]1c3ccccc3CN[C@H]1CC2 | inconclusive: 15.8 µM [inhibitor, full curve] | –
Fc1ccc(C(OCCN2CCN(C/C=C\c3ccccc3)CC2)c2ccc(F)cc2)cc1 | inconclusive: 25.1 µM [inhibitor, partial curve] | –
O[N+]1=CC=CCC1=S.On1ccccc1=S.[Zn] | inconclusive: 3.98 µM [inhibitor, partial curve] | –
COc1cc(CNC(=O)CCCC/C=C/C(C)C)ccc1O | inconclusive: 31.6 µM [inhibitor, single point] | –
Cc1ccccc1C1=NCC(=O)N(CC(=O)NCc2ccco2)c2sc3c(c21)CCCC3 | – | inactive: 3.46%
CCCCCCC(C)(C)c1ccc([C@@H]2C[C@H](O)CC[C@@H]2CCCO)c(O)c1 | inconclusive: 31.6 µM [inhibitor, partial curve] | –

Reference: PubChem BioAssay AID995 (National Center for Advancing Translational Sciences (NCATS), 2007)
